Data reported in PubChem BioAssay AID1508642 (National Center for Advancing Translational Sciences (NCATS), 2021).
Hit rate of the full screen: of about 43,000 compounds, about 200 (0.47%) were called active. Another 12% or so got no clear call; they are omitted. Calls come from the whole dose curve; as a rule, active = well fitted cell-killing curve with a large enough effect; inconclusive = small, poorly fitted or top-dose-only effect, or effect the other way; inactive = flat fitted curve, though single readings scatter. The list shows a part of the results.

Assay: Cell viability qHTS assay in S16 Pmp22-F2sN cells; note: nearly all actives have a fitted effect of over 65% in size
Details: S16 Pmp22-F2sN Schwann cells (luciferase reporters placed in the Pmp22 gene) viability, CellTiter-Glo, 24 h; series mostly up to 57.5 µM; activity change, negative = cytotoxicity: at the top concentration
How it was run: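 Rat S16 Schwann reporter line, 24 h treatment with library compounds delivered at 23 nL per well. Cell viability by CellTiter-Glo luminescence.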
% is set by controls: 0 for no effect and ±100 for the full control effect; potency is the fitted concentration of half-maximal effect.

| Structure (SMILES) | activity change, negative = cytotoxicity | Potency |
| --- | --- | --- |
| CCC(=O)N1CCc2cc(S(=O)(=O)NC(C(=O)NCCc3ccc(C)cc3)C(C)C)ccc21 (stereo not drawn) | inactive: -0.484% |  |
| CCOc1cc2[nH]c(=O)n(CCCCCC(=O)NC(C)CC)c(=O)c2cc1OCC (stereo not drawn) | inactive: 4.57% |  |
| COc1ccc(N2CCN(Cc3nc(-c4ccc(C)cc4)no3)CC2)cc1 | inactive: 14.3% |  |
| CC1CCN(S(=O)(=O)c2cn(CC(=O)Nc3ccc(F)cc3)c(=O)c3ccccc23)CC1 | inactive: -24.4% |  |
| CCCN(CCC)CCCNC(=O)C1CCN(S(=O)(=O)c2cccc3nsnc23)CC1 | inactive: 4.87% |  |
| CCOc1ccc(S(=O)(=O)N2CCN(c3ccc(C)cc3C)CC2)c2ccccc12 | inactive: -2.09% |  |
| CCN(C(=O)c1ccc2c(=O)n3c(nc2c1)CCCCC3)c1cc(C)ccc1C | inactive: 16.3% |  |
| Cc1ccc(C(=O)CC2(O)C(=O)N(Cc3ccccc3)c3ccc(Br)cc32)cc1 (stereo not drawn) | inactive: -26.1% |  |
| O=C1COc2ccc(-c3cc(-c4ccc(F)cc4)c4c(n3)-c3ccccc3OC4)cc2N1 | inactive: 24.4% |  |
| CCCCNS(=O)(=O)c1ccc2nc(-c3cccnc3)cc(C(=O)NCCCOCC)c2c1 | inactive: -22.1% |  |
| Cc1ccc(NC(=O)COCc2cc(-c3cccs3)on2)cc1Cl | inactive: -2.63% |  |
| CCCCOC(=O)c1ccc(NC(=O)/C(C#N)=C/c2ccc(C)o2)cc1 | inactive: 8.4% |  |
| COC(=O)c1ccc(NC(=O)CN(c2cccc(C(F)(F)F)c2)S(C)(=O)=O)cc1 | inactive: 2.41% |  |
| Cc1cccc(-n2c(SCC(=O)Nc3ccccc3C)nc3c(oc4ccccc43)c2=O)c1 | inactive: -1.93% |  |
| CCc1ccccc1N1C(=O)N(C)c2ccccc2S1(=O)=O | inactive: 16.2% |  |
| CCOc1ccccc1CNC(=O)CCn1cccn1 | inactive: 7.62% |  |
| Cc1[nH]c2ccccc2c1C(=O)C(=O)NC1CC(=O)N(c2ccccc2)C1 (stereo not drawn) | inactive: 2.77% |  |
| Cc1ccc(N2CCN(S(=O)(=O)c3cc(Br)cc4c3N(C(=O)C3CC3)CC4)CC2C)cc1 (stereo not drawn) | inactive: 17.9% |  |
| CCCCSc1nnc2c(n1)OC(c1ccc(C)s1)Nc1ccccc1-2 (stereo not drawn) | inactive: 2% |  |
| CCC(CC)c1nn2cc(-c3ccccc3)nc2s1 | inactive: 2.21% |  |
| CCOc1cc(-c2nnc(SCC(=O)NCCCOC)nc2-c2ccc(OC)c(OCC)c2)ccc1OC | inactive: 3.69% |  |
| COc1ccc(NC(=O)C(NS(=O)(=O)c2cccc3nsnc23)c2ccccc2)cc1 (stereo not drawn) | inactive: 7.18% |  |
| Cn1cc(S(=O)(=O)N2CCCCC2)cc1C(=O)NCc1ccc(Cl)cc1 | inactive: -27.1% |  |
| CCC(=O)Nc1nnc(S(=O)(=O)N2CCCCCC2)s1 | inactive: 6.71% |  |
| COc1ccc(N2CC(NC(=O)Cc3cccs3)CC2=O)cc1OC (stereo not drawn) | inactive: 0.489% |  |

| Structure (SMILES) | activity change, negative = cytotoxicity | Potency |
| --- | --- | --- |
| CCS(=O)(=O)N1CC(=O)N(c2ccc(C)c(C)c2)C(C)(C(=O)NC2CCCCCC2)C1 (stereo not drawn) | inactive: 4.66% |  |
| CCCN(C(=O)c1cn(CC(C)C)c(=O)c2cc(OC)c(OC)cc12)c1cccc(C)c1 | inactive: 4.4% |  |
| COc1ccc(-c2cn3c(n2)sc2cc(C(=O)N4CCCCC4)ccc23)cc1 | inactive: -28.3% |  |
| CCc1ccc(NC(=O)CSc2nc3ccccc3c(=O)n2CCC(=O)NC2CCCCC2)cc1 | inactive: 0.84% |  |
| Cc1nc2nc(C)c(CCC(=O)NCCc3ccccc3)c(C)n2n1 | inactive: -0.587% |  |
| O=C(Cn1cc(S(=O)(=O)Cc2ccccc2Cl)c2ccccc21)Nc1cccc(C(F)(F)F)c1 | inactive: -2.18% |  |
| Cc1ccc(S(=O)(=O)N(CC(=O)Nc2c(C)cccc2C)c2cccc(Cl)c2)cc1 | inactive: -27.2% |  |
| CCOc1ccc(C(NC(=O)c2cc(OC)c(OC)c(OC)c2)c2cc(Cl)c3cccnc3c2O)cc1 (stereo not drawn) |  | active: 1.78 µM |
| Cc1ccc2nc(CN3CCN(S(=O)(=O)c4ccccc4)CC3)oc2c1 | inactive: 15.7% |  |
| Nc1c(-c2nc(-c3ccccc3Cl)no2)nnn1-c1ccccc1F | inactive: -1.86% |  |
| CCC(Sc1nc2cc3c(cc2c(=O)n1CCCC(=O)NCc1ccc2c(c1)OCO2)OCO3)C(=O)NCCCOC (stereo not drawn) | inactive: 1.53% |  |
| CCC(=O)N1c2ccc(S(=O)(=O)N3CCCCCC3)cc2CC1C (stereo not drawn) | inactive: 4.43% |  |
| O=c1c2oc3ccccc3c2ncn1Cc1ccc(Br)cc1 | inactive: -1.87% |  |
| COc1ccc(C2c3c(oc4ccccc4c3=O)C(=O)N2c2nc(C)c(C)s2)cc1 (stereo not drawn) | inactive: -0.153% |  |
| COc1ccc(C2c3c(-c4ccc(F)cc4)n[nH]c3C(=O)N2c2ccccc2)cc1OC (stereo not drawn) | inactive: -20.6% |  |
| CCOc1ccc(CCNC(=O)c2cc3c(-c4ccccc4F)nn(C)c3s2)cc1OCC | inactive: -4.9% |  |
| CCOC(=O)c1ccc(NC(=O)c2ccc(-c3cccc(Cl)c3C)o2)cc1 | inactive: 19.4% |  |
| CCOc1ccc(NC(=O)CS(=O)(=O)Cc2nc(-c3ccc(C)cc3)oc2C)cc1 | inactive: -7.42% |  |
| O=C(COc1ccccc1)Nc1ccc2nc(SCC(=O)N3CCCC3)sc2c1 | inactive: 3.54% |  |
| COc1ccc(C2CC(=O)Oc3c2c(=O)n(C)c2ccccc32)c(OC)c1OC (stereo not drawn) | inactive: -0.422% |  |
| Cc1ccc(Nc2c(-c3ccc(C)cc3)nc3c(C)cccn23)cc1 | inactive: -3.98% |  |
| CC(C)c1ccc(Nc2c(-c3ccc(N(C)C)cc3)nc3cnccn23)cc1 | inactive: -0.575% |  |
| COc1ccc(-c2noc(CSc3nc4ccccc4[nH]3)n2)cc1 | inactive: -28.4% |  |
| O=C(NCCc1ccc(Cl)cc1)C(=O)NCC(c1cccs1)S(=O)(=O)c1ccccc1 (stereo not drawn) | inactive: 1.38% |  |
| Cc1ccc(C)c(NC(=O)CSc2nc(=O)n(Cc3ccncc3)c3c2CCC3)c1 | inactive: 9.18% |  |

| Structure (SMILES) | activity change, negative = cytotoxicity | Potency |
| --- | --- | --- |
| CC(=O)N1c2ccc(S(=O)(=O)NCCC(=O)N(C)Cc3ccccc3)cc2CC1C (stereo not drawn) | inactive: -0.409% |  |
| COC(=O)c1cc2sc(C)cc2n1Cc1nc(-c2ccc(C)cc2)oc1C | inactive: 8.4% |  |
| O=C(Cc1ccc(Cl)cc1)Nc1ccc2oc(-c3ccccc3F)nc2c1 | inactive: -0.608% |  |
| CNC(=O)c1c(NC(=O)Cc2coc3ccc(OC)cc23)sc2c1CCCC2 | inactive: 0.789% |  |
| COc1cccc(CN(C(=O)c2oc3ccccc3c2C)C2CCS(=O)(=O)C2)c1 (stereo not drawn) | inactive: -2.22% |  |
| CCS(=O)(=O)N1CCc2cc(C(=O)NCc3ccccc3Cl)ccc21 | inactive: 1.73% |  |
| Cc1ccc(NC(=O)CCN2C(=O)c3ccccc3Sc3ncccc32)c(Cl)c1 | inactive: 0.098% |  |
| COc1ccccc1NC(=O)c1sc2nc(C)c(C(=O)Nc3ccc(C)cc3C)c(-c3ccccc3Cl)c2c1N | inactive: 5.64% |  |
| Cc1ccc2oc(=O)c3cc(C(=O)NCCc4ccc(Cl)cc4)sc3c2c1 | inactive: -0.71% |  |
| CCOc1ccccc1NS(=O)(=O)c1cc(-c2cnc(C3CC3)o2)ccc1C | inactive: 1.38% |  |
| CCc1ccccc1NC(=O)NC(CC)Cn1nnc2ccccc2c1=O (stereo not drawn) | inactive: 3.11% |  |
| O=C(c1cc2ccc3cccnc3c2[nH]1)N1CCN(c2cccc(Cl)c2)CC1 | inactive: -26.7% |  |
| COc1ccc(NC(=O)C(C(C)C)N2Cc3ccccc3C2=O)cc1 (stereo not drawn) | inactive: -17.8% |  |
| CCCCc1nn2c(=O)cc(COC(=O)c3ccccc3C)nc2s1 | inactive: 0.0757% |  |
| COCCCNc1nc(NCc2ccc(C)cc2)c2cnn(C)c2n1 | inactive: -5.72% |  |
| CN1CCN(C(CNC(=O)c2c(F)cccc2F)c2ccc3c(c2)OCO3)CC1 (stereo not drawn) | inactive: 17.7% |  |
| Cc1cccc(N2CCN(C(=O)c3cc4ccc5cccnc5c4[nH]3)CC2C)c1 (stereo not drawn) | inactive: -2.83% |  |
| CCN(C(=O)Cn1ncc2c(=O)oc3ccccc3c21)c1ccccc1F | inactive: 0.618% |  |
| O=c1c2ccccc2n(Cc2cccc(Cl)c2)c(=O)n1Cc1ccccc1 | inactive: -4.81% |  |
| COCCc1nn2c(=O)cc(COC(=O)c3ccc(Br)cc3)nc2s1 | inactive: -10.9% |  |
| CCC(C)NC(=O)c1sc2nc3n(c(=O)c2c1C)CCC3 (stereo not drawn) | inactive: 2.34% |  |
| O=c1oc2ccccc2cc1-c1nc(-c2cccs2)no1 | inactive: 12.7% |  |
| COc1ccccc1-c1nc(SCC(=O)c2ccc(Cl)cc2)n[nH]1 | inactive: -23.1% |  |
| CCC(=O)Nc1sc2c(c1C(=O)Nc1ccc(Br)cc1)CCCCC2 | inactive: -25.3% |  |
| COc1ccc(CCNC(=O)c2ccc(Cn3c(=O)[nH]c4cc(OC)c(OC)cc4c3=O)cc2)cc1OC | inactive: 23.4% |  |

| Structure (SMILES) | activity change, negative = cytotoxicity | Potency |
| --- | --- | --- |
| Cc1cc(C)c(NC(=O)CSc2nc3c([nH]c4ccccc43)c(=O)n2C)c(C)c1 | inactive: 10.2% |  |
| CCCOc1cccc(C2c3c(oc4ccc(F)cc4c3=O)C(=O)N2c2nc(C)c(C(C)=O)s2)c1 (stereo not drawn) | inactive: 10.6% |  |
| CCCCNC(=O)CN1CCN(c2ncc(NC(=O)c3ccc(Cl)cc3)cc2C(=O)O)CC1 | inactive: 8.34% |  |
| CCc1ccccc1N(CC)C(=O)C1CCN(c2ncnc3c2nc2n3CCCCC2)CC1 | inactive: -4.72% |  |
| CC1CCCCN1CCCNC(=O)Cn1ncc2c3ccccc3n(C)c2c1=O (stereo not drawn) | inactive: 18.5% |  |
| Cc1ccc(S(=O)(=O)c2cc3cc(C(=O)Nc4ccc(C)cc4C)ccc3oc2=O)cc1 | inactive: -9.81% |  |
| CCc1ccccc1NC(=O)c1ccc(F)c(S(=O)(=O)N2CCN(c3cccc(Cl)c3)CC2)c1 | inactive: 15.8% |  |
| CC1CCN(S(=O)(=O)c2ccc3nc(N4CCN(c5ccc(F)cc5)CC4)ccc3c2)CC1 | inactive: -2.01% |  |
| Cc1ccc(O)c(-c2n[nH]c3c2C(c2ccc(F)cc2)N(Cc2ccco2)C3=O)c1 (stereo not drawn) | inactive: -17.2% |  |
| O=C(COCc1cc(-c2cccs2)on1)Nc1cc(C(F)(F)F)ccc1Cl | inactive: 14.4% |  |
| CC(C)OCCCNC(=O)CCCN1C(=O)CCn2nc(-c3cccn3C)cc21 | inactive: -1.22% |  |
| COc1cccc(C(=O)N(Cc2ccc(C)o2)C2CCS(=O)(=O)C2)c1 (stereo not drawn) | inactive: -10.7% |  |
| COc1ccc(-c2cc(C(F)(F)F)nc(NCc3ccc(F)cc3)n2)cc1 | inactive: 13.5% |  |
| COc1cc(C(CC(=O)Nc2ncccc2C)N2Cc3ccccc3C2=O)cc(OC)c1OC (stereo not drawn) | inactive: 7.43% |  |
| CCN(c1ccccc1)S(=O)(=O)c1ccc(NC(=O)c2nc(SC(C)C)ncc2Cl)cc1 | inactive: -4.14% |  |
| O=C(OCc1cc(=O)n2nc(C3CC3)sc2n1)c1ccc(NC(=O)c2ccccc2F)cc1 | inactive: 7.1% |  |
| Cc1ccc(C(=O)N2CCC(C)CC2)cc1NC(=O)c1nsc2ccccc12 | inactive: 0.306% |  |
| CC(=O)c1cc(-c2ccc(F)cc2)n(CCC(=O)Nc2nc3ccc(C)cc3s2)c1C | inactive: -20.1% |  |
| COc1ccc(OC)c(/C=C(\C#N)c2nc(-c3ccc(F)cc3)cs2)c1 | inactive: -6.4% |  |
| COC(=O)c1ccc2c(c1)N(Cc1ccccc1)C(=O)c1ccccc1S2(=O)=O | inactive: 9.12% |  |
| COc1ccc(Cn2c(C(=O)O)c(CNC3CCCCC3)c3ccc(C)cc32)cc1 | inactive: -13.1% |  |
| COc1ccc(Cl)cc1NC(=O)CN1Cc2ccccc2C1=O | inactive: 1.94% |  |
| Cc1nc(S(=O)(=O)N2CCN(c3ccccc3F)CC2)cn1C | inactive: 2.1% |  |
